Consider one molecule from patent US20230117205A1, “B7-H4 ANTIBODY-DRUG CONJUGATES FOR THE TREATMENT OF CANCER” (SEAGEN INC., priority 2021, published 2023).

Experiment [1] has as its system SKBR3, MX-1, and 293T-B7-H4. Briefly: NK cell-mediated ADCC. The experiment is classed as cell-based, human. Conditions: NK effector cells, 4 hours. The text has this: Antibodies directed to cell surface antigens can elicit direct killing of antibody-coated cells, including induction of ADCC.
Human PBMCs were thawed into pre-warmed R10+ Media (RPMI 1640 (Gibco #11875-093) with 10% HI-FBS (Gibco #16140-071), 1× sodium pyruvate (Gibco #11360-070), and 1× GlutaMax (Gibco #35050-061)) and then an EasySep NK isolation kit (StemCell #17955) was used to purify NK cells. Target tumor cells were lifted off using TrypLE Express (Gibco #12604-021) and then plated into a U-bottom plate (Falcon #353077) at 40,000 cells/well (50 μL/well) for MX-1 and 293T-B7-H4 (HEK 293T cells engineered to express human B7-H4) and 20,000 cells/well (50 μL/well) for SKBR3 cell line. […] (NOTE: actual starting concentration was 6000 ng/mL to account for the inherent 3× dilution of the assay.) Then 200,000 cells/well (50 μL/well) of isolated NK cells were plated into the U-bottom plate (effector: tumor ratios were as follows: NK:SKBR3 cells 10:1; NK:MX1 cells 5:1, NK:293T-B7-H4 cells 5:1). Appropriate controls included: positive control mAb and ADC and negative non-binding control mAb and ADC, NK cells only control, target cells only control, target cells maximum lysis control, and media only control. […] A CytoTox 96 Non-Radioactive Cytotoxicity Assay kit (Promega #G1780) was used to develop the signal, which was read using 490 nm wavelength on a SpectraMax 190 instrument.

Another experiment concerns SKBR3. Kind of experiment: ADCP with primary monocytes/macrophages. Type of experiment: cell-based, human. Conditions: 2 independent donors. The procedure: The B7-H4-expressing cell line SKBR3 and primary monocytes/macrophages were used to evaluate SGN-B7H4V-mediated ADCP. […] Phagocytosis of opsonized cells was assessed by flow cytometry.
SKBR3 tumor cells were fluorescently labeled with PKH26 (PKH26 Red Fluorescent Cell Membrane Labeling Kit, Sigma-Aldrich #PKH26GL-1KT), according to manufacturer instructions: SKBR3 cells were harvested with Versene (Gibco #15040-066) for 10 minutes and washed once with PBS. Cell were resuspended in 1 mL Diluent C (included in the PKH26 Red Fluorescent Cell Membrane Labeling Kit, Sigma-Aldrich #PKH26GL-1KT). In a separate tube, 1 mL Diluent C was mixed with 4 μL PKH26 dye by pipetting up and down. The dye solution was transferred to resuspended cells, quickly mixed by pipetting up and down several times, and incubated at room temperature for 5 minutes. Labeling reaction was stopped by adding 2 mL FBS (0.05-0.2 EU/ml Endotoxin, R&D Systems #S11550H). Cells were then washed once with RPMI 1640 (Gibco #11875-093) containing 10% FBS. Cells were resuspended in PBS at concentration of 0.8×10^6 cells/mL and transferred (300 μL/well) to a 96-well U-bottom plate (Falcon #353227). […] Phagocytosis is reported as the PKH26 geometric mean fluorescence intensity (gMFI) of gated CD14+/CD45+ cells analyzed using Flowjo. […]

The subject of experiment [2] is WIL2S and RAJI cells transduced to express human B7-H4. Kind of experiment: CDC, Sytox Green, 10% human serum. The experiment is classed as cell-based. The procedure: Antibodies have the ability to recruit complement proteins triggering complement-dependent cytotoxicity (CDC).
Using complement media (RPMI containing 10% human serum (Complement Technology, Inc. #NHS)), test antibodies and controls were titrated with a 3-fold dilution ranging from 50-0.02 μg/mL and 100 μL/well of the titrations were plated over the target cells. To measure total cell death, 2% Triton X (EMD Millipore Corp. #648463-50ML) was used as a positive control. Test plate was incubated for 2 hours at 37° C. in a humidity-controlled incubator and then Sytox Green fluorescence was read on an Envision plate reader.

B1: B7H41001 mAb (antibody)
heavy: QLQLQESGPGLVKPSETLSLTCTVSGGSIKSGSYYWGWIRQPPGKGLEWIGNIYYSGSTYYNPSLRSRVTISVDTSKNQFSLKLSSVTAADTAVYYCAREGSYPNQFDPWGQGTLVTVSS[human IgG1 constant region not listed]
light: EIVMTQSPATLSVSPGERATLSCRASQSVSSNLAWYQQKPGQAPRLLIYGASTRATGIPARFSGSGSGTEFTLTISSLQSEDFAVYYCQQYHSFPFTFGGGTKVEIKRTVAAPSVFIFPPSDEQLKSGTASVVCLLNNFYPREAKVQWKVDNALQSGNSQESVTEQDSKDSTYSLSSTLTLSKADYEKHKVYACEVTHQGLSSPVTKSFNRGEC
modifications: non-natural residues; cyclised or stapled
Take B1: the ADCC response entry in experiment [1] is reported as “comparable ADCC responses”. In addition, the ADCP activity result with SKBR3 is listed as “ADCP activity above that seen with the positive control”. Besides, in experiment [2], the “lysis (CDC)” value is given as “did not induce lysis”.
